Results published in paper PMC4336329 (PLoS ONE, 2015).
About 14,000 (4.5%) of roughly 310,000 compounds showed an effect of 50% or more. Effects have a minus sign here. The list shows a part of the results.

Molecular target: human ether-à-go-go-related gene (hERG) potassium channel (human, UniProt Q12809)
Test: primary screen, population patch clamp on CHO cells stably expressing hERG
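Further: peak tail current of the secondary pulse compared with the same well before compound.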

human ether-à-go-go-related gene (hERG) potassium channel, sequence (Q12809 whole entry, looked up): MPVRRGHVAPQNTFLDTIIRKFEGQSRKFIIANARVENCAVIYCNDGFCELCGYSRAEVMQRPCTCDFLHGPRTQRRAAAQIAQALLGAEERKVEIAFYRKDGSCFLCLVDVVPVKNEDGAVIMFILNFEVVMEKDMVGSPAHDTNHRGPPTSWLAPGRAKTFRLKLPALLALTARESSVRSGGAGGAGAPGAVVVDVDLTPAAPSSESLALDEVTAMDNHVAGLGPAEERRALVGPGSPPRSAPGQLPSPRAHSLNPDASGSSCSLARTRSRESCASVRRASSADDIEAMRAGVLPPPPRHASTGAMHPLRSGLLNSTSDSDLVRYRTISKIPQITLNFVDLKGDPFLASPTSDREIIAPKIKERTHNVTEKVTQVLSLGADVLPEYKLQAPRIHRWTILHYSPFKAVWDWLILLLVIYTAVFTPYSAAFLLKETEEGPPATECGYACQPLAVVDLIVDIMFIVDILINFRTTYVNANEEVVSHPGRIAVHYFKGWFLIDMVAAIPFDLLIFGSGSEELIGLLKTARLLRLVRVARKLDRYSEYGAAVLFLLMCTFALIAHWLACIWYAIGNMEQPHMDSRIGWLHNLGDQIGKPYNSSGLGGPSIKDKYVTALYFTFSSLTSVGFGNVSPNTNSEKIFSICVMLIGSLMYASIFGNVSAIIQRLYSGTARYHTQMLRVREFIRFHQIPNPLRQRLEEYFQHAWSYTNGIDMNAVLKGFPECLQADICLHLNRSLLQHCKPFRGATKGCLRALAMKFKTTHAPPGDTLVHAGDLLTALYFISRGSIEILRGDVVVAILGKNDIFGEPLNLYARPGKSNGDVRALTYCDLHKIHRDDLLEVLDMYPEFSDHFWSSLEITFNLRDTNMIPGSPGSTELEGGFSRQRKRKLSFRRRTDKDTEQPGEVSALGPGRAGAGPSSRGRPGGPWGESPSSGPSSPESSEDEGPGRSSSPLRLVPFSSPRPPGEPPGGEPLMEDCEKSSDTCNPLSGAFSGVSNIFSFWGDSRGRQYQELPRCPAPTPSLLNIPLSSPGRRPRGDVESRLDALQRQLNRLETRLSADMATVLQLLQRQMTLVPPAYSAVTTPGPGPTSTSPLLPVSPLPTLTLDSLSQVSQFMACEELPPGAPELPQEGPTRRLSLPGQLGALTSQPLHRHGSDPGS

SMILES | hERG current change (%, negative = inhibition) at 10uM [%]
CCOC(=O)N1CCC(NC(=O)C2CCCN(Cc3nc(-c4cccc(Cl)c4)oc3C)C2)CC1 (centres unmarked) | -72.2
Cc1ccccc1NC(=O)CCN1CCN(C)CC1 | 19.4
Cc1cc(OCC(=O)N2CCc3ccccc3C2)c2c(-c3ccccc3)cc(=O)oc2c1 | -20.7
N/C(=N\NC(=O)c1ccccc1Cl)c1cc2ccccc2oc1=O | 26.2
OC1(c2ccc(Cl)cc2)CCN(Cc2cn[nH]c2-c2ccccc2)CC1 | -77.7
O=C(O)c1cccc(S(=O)(=O)Nc2ccc3c(c2)OCO3)c1 | 23.4
COc1cc(NC(=S)NCc2cccnc2)c(OC)cc1Cl | -27.9
O=C(OCc1cnc(Cl)s1)c1cccc(Cl)c1 | -7.77
CC(C)(OC(=O)c1cccs1)c1cc2ccccc2c(=O)o1 | 1.83
CCN1CCOC(CC(=O)Nc2ccc([N+](=O)[O-])cc2)C1=O (centres unmarked) | -5.8
O=C(O)c1cc(S(=O)(=O)Nc2ccccc2C(=O)O)ccc1O | 4.16
Cc1ccc(C(=O)OCC(=O)c2c[nH]c3ccccc23)cc1NC(=O)c1ccco1 | -2.89
O=C(Cn1cncn1)NCc1cc(F)ccc1F | 13.7
CC(C)(C)NC(=O)C(c1ccc(F)cc1)N(Cc1ccco1)C(=O)c1csnn1 (centres unmarked) | 2.96
Cc1cc2cc(C)c3nnc(SCC(=O)N4CCN(C(=O)c5ccco5)CC4)n3c2cc1C | -13.2
CC(=O)c1cccc(NC(=O)C2C(c3ccccc3)C2(Cl)Cl)c1 (centres unmarked) | 5.69
COc1ccc(C(=O)CCC(=O)Nc2cccnc2)cc1 | 9.39
O=C(c1ccccc1)C(O)C(c1ccccc1)N1CCOCC1 (centres unmarked) | 21.7
CC(C(=O)C12CC3CC(CC(C3)C1)C2)N1CCOCC1.Cl (centres unmarked) | 23.4
CN(C)S(=O)(=O)Oc1ccsc1C(=O)Nc1cccc(Cl)c1 | -7.19
COc1ccc(C(=O)C2CCCN(S(=O)(=O)c3cccc(C)c3)C2)c(C)c1 (centres unmarked) | 11
O=C(CNC(=O)COc1ccccc1)NCc1ccccc1F | -5.26

SMILES | hERG current change (%, negative = inhibition) at 10uM [%]
Cc1ccc(NC(=O)NCc2ccc3[nH]c(C)cc3c2)cc1 | 16
CC(C)N(CCC#N)C(=O)Nc1ccc2c(c1)CCO2 | 7.47
COc1ccc([N+](=O)[O-])cc1NC(=O)C(C)OC(=O)C1c2ccccc2Oc2ccccc21 (centres unmarked) | 23.5
CC(C)CCN1CCN(C2CSCCSC2)CC1CCO (centres unmarked) | -7.6
Cc1ccccc1NC(=O)CSc1nc(N)c2c3c(sc2n1)CSC(C)(C)C3 | -16.1
Cc1ccc(S(=O)(=O)NC(CC(C)C)C(=O)N2CCOCCOCCOCCOCC2)cc1 (centres unmarked) | -1.12
COc1ccc(COc2ccc3c(C)cc(=O)oc3c2)cc1 | 1.32
O=C1N(Nc2ccccc2)C(c2ccc(Br)cc2)C12CCCC2 (centres unmarked) | 26.1
CCN(CC)c1ccc(SS(=O)(=O)[O-])cc1.[Na+] | 5.98
Cc1ccc(CNC(=O)C(Cc2ccccc2)NS(=O)(=O)c2cccs2)cc1 (centres unmarked) | -18.3
CC1CCN(C(=O)Cn2cnc3c(cnn3C(C)(C)C)c2=O)CC1 | 5.92
COc1ccc(C(=O)Nc2ccc(C)cc2C(=O)c2ccccc2)c(OC)c1 | 9.85
Cc1ccc(-c2nn(CCC(=O)O)cc2/C=C\C(=O)c2ccc(Br)cc2)cc1 | 56.7
O=C(CCN1C(=O)c2ccccc2C1=O)Nc1cccc(O)c1 | 9.89
Cn1nc(N2CCN(S(=O)(=O)c3ccccc3)CC2)c(=O)n(C)c1=O | 12.9
COC(=O)c1nc(-n2nc(C)cc2C)ccc1Cl | -9.85
C=CCNC(=O)c1ccc2c(=O)n(Cc3ccccc3OC)c(=S)[nH]c2c1 | 8.92
Cc1ccc(CNC(=O)CC2C(=O)Nc3c2c(=O)n(C)c(=O)n3Cc2ccccc2)cc1 (centres unmarked) | -2.14
CCOC(=O)C1=C(C)N=c2s/c(=C\c3ccc(OCC(=O)O)cc3)c(=O)n2C1c1ccccc1OC (centres unmarked) | 12.8
CCOc1ccccc1NC(=O)CSc1nc(=O)n(CCN2CCOCC2)c2c1CCCC2 | -15.6
O=C(CSc1nnc2n1CCCN2)c1ccccc1 | 4.15
CCN1CCN(c2nc3sc4c(c3c(=O)n2-c2ccc(OC)cc2)CCCCC4)CC1 | -60.3
